Data reported in PubChem BioAssay AID2100 (National Center for Advancing Translational Sciences (NCATS), 2009).
The campaign covered roughly 300,000 compounds. About 1,200 (0.4%) were called active. Inconclusive means that the source gave no clear call. Such entries were picked first, then a sample of the others. The call rests on the fitted dose curve; in most records, active means well fitted inhibition curve with a large enough effect; inconclusive means small, poorly fitted or top-dose-only effect, or another doubt; inactive means no such curve, though single readings can be large or run the other way. Potencies beside an inconclusive call are fits to weak or partial responses and may not hold up.
Potency means the concentration at half of the fitted maximal effect.
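Wherever activity change, negative = inhibition is given: 0% = full enzyme reaction and -100% = no-enzyme basal signal.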

What follows are molecules tested against Lysosomal alpha-glucosidase (Homo sapiens) (UniProt P10253) (assay: qHTS Assay for Inhibitors and Activators of Human alpha-Glucosidase Cleavage of Glycogen). Conditions: recombinant GAA, glycogen substrate, Amplex Red glucose oxidase fluorescence; activity change, negative = inhibition: at 76.4 µM (top of the series) unless noted.
Method in brief: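 Recombinant human enzyme (4 nM); glycogen substrate; 37 C, 40 min, pH 5.0. Readout: coupled glucose oxidase/Amplex Red fluorescence.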
In the case of `CN(C)c1ccc(NC(=O)CSCc2nc3c(nnn3Cc3ccc(F)cc3)c(=O)[nH]2)cc1`, the “activity change, negative = inhibition” value is reported as inactive: 5.18%. With `COc1cc(C2C3=C(CC(C)(C)CC3=O)NC3=C2C(=O)c2ccccc23)ccc1O` (stereo not given) the Potency was inconclusive: 15.8 µM [inhibitor, partial curve]. For `Cc1cccc(C)c1N(CC(=O)NCc1ccc(F)cc1)C(=O)c1csnn1`, the Potency was inconclusive: 3.14 µM [inhibitor, partial curve]. For `CCn1cc(C(=O)O)c(=O)c2cc(F)c(N3CCN(S(=O)(=O)c4ccc(NC(C)=O)cc4)CC3)cc21`, the Potency was inconclusive: 11.1 µM [inhibitor, partial curve]. `Cc1cc(O)c(NC(=O)c2ccco2)cc1C` was tested, and the Potency was active: 11.2 µM. With `O=C(CN1CCOCC1)NNC(=S)Nc1ccccc1` the Potency was inconclusive: 39.5 µM [inhibitor, single point]. With `CCc1c(O)nc(N2CCN(Cc3ccccc3)CC2)[nH]c1=O` the Potency was inconclusive: 25.1 µM [inhibitor, partial curve]. `CCC(=O)NCCc1nc2cc(NC(=O)c3cccc([N+](=O)[O-])c3)ccc2n1C` was tested, and the “activity change, negative = inhibition” value was inactive: 0.191%. In the case of `COCc1cc(C)nc2sc3c(c12)NC(c1ccccc1C(=O)O)N(c1ccc(OC)cc1)C3=O` (stereo not given), the Potency is reported as inconclusive: 126 µM [inhibitor, partial curve]. With `COC(=O)c1[nH]c2ccccc2c1NC(=O)Oc1ccccc1` the “activity change, negative = inhibition” value was inactive: -17.3%. With `O=C(c1ccc2ccccc2c1)N1CCN(c2ccc(O)cc2)CC1` the Potency was active: 17.6 µM. `S=c1[nH]cc(-c2ccccc2)n1-c1ccccc1` was tested, and the Potency was inconclusive: 31.6 µM [inhibitor, partial curve]. `COc1ccc(S(=O)(=O)c2ccc(O)cc2)cc1` was tested, and the “activity change, negative = inhibition” value was inactive: -16.7%. With `CCc1nnc(N/N=C/c2ccccc2F)n1N` the Potency was inconclusive: 3.55 µM [inhibitor, full curve]. `O=C1OC(c2ccc(Cl)cc2)=C/C1=C/c1cccnc1` was tested, and the “activity change, negative = inhibition” value was inactive: 0.575%. In the case of `CCOc1ccc(N(CC(=O)Nc2cccc(C)c2C)S(=O)(=O)c2c(C)[nH]c(=O)[nH]c2=O)cc1`, the “activity change, negative = inhibition” value is reported as inactive: 4.54%. `O=C1c2oc3ccc(Br)cc3c(=O)c2C(c2cccnc2)N1Cc1ccco1` (stereo not given) was tested, and the “activity change, negative = inhibition” value was inactive: 12.4%. For `COc1cc(CNc2ccc3[nH]c(=O)[nH]c3c2)cc(Br)c1OCc1ccc(F)cc1`, the Potency was inconclusive: 14.1 µM [inhibitor, partial curve]. `COc1ccc(C2C3=C(CC(C)(C)CC3=O)Nc3cc4c(cc32)OCO4)cc1` (stereo not given) was tested, and the Potency was inconclusive: 20 µM [inhibitor, partial curve]. With `CC1=C(C(=O)Nc2cccnc2)C(c2ccc(Cl)cc2)n2nc(SCc3ccccc3)nc2N1` (stereo not given) the Potency was active: 25.1 µM.
